From PMC5540273 (PLoS ONE, 2017)
For some assays here: The strong results were mostly taken out for another list; the other results follow. Only a part is listed here, and it is no random draw.

Tests used:
Conditions in all cases: concentration: 1 μM,replicates: in singlicate; n = 1
[1] = tested on: EPHA5
[2] = tested on: EPHA6
[3] = tested on: EPHA7
[4] = tested on: EPHA8
[5] = tested on: EPHB1
[6] = tested on: EPHB2
[7] = tested on: EPHB3
[8] = tested on: EPHB4
[9] = tested on: EPHB6
[10] = tested on: ERBB2
[11] = tested on: ERBB3
[12] = tested on: ERBB4
[13] = tested on: T1, ERK1
T1 construct: gene MAPK3

[14] = tested on: T2, ERK2
T2 construct: gene MAPK1

[15] = tested on: T3, ERK3
T3 construct: gene MAPK6

[16] = tested on: T4, ERK4
T4 construct: gene MAPK4

[17] = tested on: T5, ERK5
T5 construct: gene MAPK7

[18] = tested on: T6, ERK8
T6 construct: gene MAPK15

[19] = tested on: ERN1
[20] = tested on: T7, FAK
T7 construct: gene PTK2
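Note: KINOMEscan kinase panel screen.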

## O=C1NC(=O)c2c1c(-c1ccccc1)cc1[nH]c3ccc(O)cc3c21
[1]
  %Inh: 12%
[2]
  %Inh: 10%
[3]
  %Inh: 0%
[4]
  %Inh: 0%
[5]
  %Inh: 0%
[6]
  %Inh: 0%
[7]
  %Inh: 15%
[8]
  %Inh: 16%
[9]
  %Inh: 90.5%
[10]
  %Inh: 11%
[11]
  %Inh: 5%
[12]
  %Inh: 28%
[13]
  %Inh: 0%
[14]
  %Inh: 8%
[15]
  %Inh: 0%
[16]
  %Inh: 23%
[17]
  %Inh: 0%
[18]
  %Inh: 95.1%
[19]
  %Inh: 35%
[20]
  %Inh: 14%

## CSc1ccc(NC2=C(c3cccc(Cl)c3)C(=O)NC2=O)cc1 [SB-341528]
[1]
  %Inh: 0%
[2]
  %Inh: 0%
[3]
  %Inh: 0%
[4]
  %Inh: 0%
[5]
  %Inh: 0%
[6]
  %Inh: 9%
[7]
  %Inh: 3%
[8]
  %Inh: 0%
[9]
  %Inh: 15%
[10]
  %Inh: 0%
[11]
  %Inh: 0%
[12]
  %Inh: 20%
[13]
  %Inh: 0%
[14]
  %Inh: 0%
[15]
  %Inh: 0%
[16]
  %Inh: 0%
[17]
  %Inh: 0%
[18]
  %Inh: 0%
[19]
  %Inh: 0%
[20]
  %Inh: 5%

## O=C1NC(=O)C(c2ccc(Cl)cc2)=C1Nc1cccc(C(=O)O)c1 [SB-360737]
[1]
  %Inh: 0%
[2]
  %Inh: 9%
[3]
  %Inh: 7%
[4]
  %Inh: 14%
[5]
  %Inh: 12%
[6]
  %Inh: 0%
[7]
  %Inh: 7%
[8]
  %Inh: 0%
[9]
  %Inh: 16%
[10]
  %Inh: 0%
[11]
  %Inh: 0%
[12]
  %Inh: 0%
[13]
  %Inh: 0%
[14]
  %Inh: 0%
[15]
  %Inh: 22%
[16]
  %Inh: 18%
[17]
  %Inh: 0%
[18]
  %Inh: 0%
[19]
  %Inh: 16%
[20]
  %Inh: 0%

## O=C1NC(=O)C(c2ccccc2)=C1Nc1cc(Cl)c(O)c(Cl)c1 [SB-390530]
[1]
  %Inh: 0%
[2]
  %Inh: 11%
[3]
  %Inh: 15%
[4]
  %Inh: 13%
[5]
  %Inh: 13%
[6]
  %Inh: 1%
[7]
  %Inh: 10%
[8]
  %Inh: 12%
[9]
  %Inh: 56%
[10]
  %Inh: 0%
[11]
  %Inh: 12%
[12]
  %Inh: 0%
[13]
  %Inh: 0%
[14]
  %Inh: 10%
[15]
  %Inh: 0%
[16]
  %Inh: 0%
[17]
  %Inh: 0%
[18]
  %Inh: 10%
[19]
  %Inh: 22%
[20]
  %Inh: 16%

## O=C1NC(=O)C(c2ccccc2Cl)=C1Nc1cccc(C(=O)O)c1 [SB-390526]
[1]
  %Inh: 0%
[2]
  %Inh: 9%
[3]
  %Inh: 2%
[4]
  %Inh: 0%
[5]
  %Inh: 4%
[6]
  %Inh: 0%
[7]
  %Inh: 13%
[8]
  %Inh: 22%
[9]
  %Inh: 22%
[10]
  %Inh: 0%
[11]
  %Inh: 9%
[12]
  %Inh: 7%
[13]
  %Inh: 2%
[14]
  %Inh: 0%
[15]
  %Inh: 0%
[16]
  %Inh: 0%
[17]
  %Inh: 5%
[18]
  %Inh: 0%
[19]
  %Inh: 7%
[20]
  %Inh: 0%

## O=C1NC(=O)C(c2ccc(Cl)cc2)=C1Nc1ccc(O)c(Cl)c1 [SB-405367]
[1]
  %Inh: 26%
[2]
  %Inh: 0%
[3]
  %Inh: 0%
[4]
  %Inh: 0%
[5]
  %Inh: 0%
[6]
  %Inh: 8%
[7]
  %Inh: 1%
[8]
  %Inh: 0%
[9]
  %Inh: 24%
[10]
  %Inh: 0%
[11]
  %Inh: 0%
[12]
  %Inh: 4%
[13]
  %Inh: 0%
[14]
  %Inh: 7%
[15]
  %Inh: 0%
[16]
  %Inh: 1%
[17]
  %Inh: 0%
[18]
  %Inh: 3%
[19]
  %Inh: 7%
[20]
  %Inh: 0%

## O=C1NC(=O)C(c2ccc(Cl)cc2)=C1Nc1ccccc1 [SB-317661]
[1]
  %Inh: 0%
[2]
  %Inh: 0%
[3]
  %Inh: 0%
[4]
  %Inh: 0%
[5]
  %Inh: 1%
[6]
  %Inh: 0%
[7]
  %Inh: 0%
[8]
  %Inh: 0%
[9]
  %Inh: 0%
[10]
  %Inh: 19%
[11]
  %Inh: 17%
[12]
  %Inh: 6%
[13]
  %Inh: 0%
[14]
  %Inh: 0%
[15]
  %Inh: 0%
[16]
  %Inh: 0%
[17]
  %Inh: 0%
[18]
  %Inh: 0%
[19]
  %Inh: 67%
[20]
  %Inh: 19%

## O=C1NC(=O)C(c2ccccc2Cl)=C1Nc1ccccc1 [SB-376715]
[1]
  %Inh: 0%
[2]
  %Inh: 0%
[3]
  %Inh: 0%
[4]
  %Inh: 0%
[5]
  %Inh: 7%
[6]
  %Inh: 0%
[7]
  %Inh: 0%
[8]
  %Inh: 0%
[9]
  %Inh: 11%
[10]
  %Inh: 14%
[11]
  %Inh: 0%
[12]
  %Inh: 37%
[13]
  %Inh: 0%
[14]
  %Inh: 4%
[15]
  %Inh: 0%
[16]
  %Inh: 9%
[17]
  %Inh: 0%
[18]
  %Inh: 0%
[19]
  %Inh: 0%
[20]
  %Inh: 0%

## Cc1ccc(C)c(Oc2nccc(-c3c(-c4ccc(F)cc4)ncn3C3CCNCC3)n2)c1.O=C(O)C(F)(F)F.O=C(O)C(F)(F)F.O=C(O)C(F)(F)F [SB-284852]
[1]
  %Inh: 7%
[2]
  %Inh: 10%
[3]
  %Inh: 0%
[4]
  %Inh: 7%
[5]
  %Inh: 7%
[6]
  %Inh: 18%
[7]
  %Inh: 15%
[8]
  %Inh: 52%
[9]
  %Inh: 0%
[10]
  %Inh: 90%
[11]
  %Inh: 17%
[12]
  %Inh: 0%
[13]
  %Inh: 0%
[14]
  %Inh: 19%
[15]
  %Inh: 0%
[16]
  %Inh: 0%
[17]
  %Inh: 0%
[18]
  %Inh: 7%
[19]
  %Inh: 0%
[20]
  %Inh: 6%

## COc1cccc(C2=C(Nc3ccc(SC)cc3)C(=O)NC2=O)c1 [SB-331032]
[1]
  %Inh: 12%
[2]
  %Inh: 6%
[3]
  %Inh: 0%
[4]
  %Inh: 2%
[5]
  %Inh: 21%
[6]
  %Inh: 17%
[7]
  %Inh: 5%
[8]
  %Inh: 0%
[9]
  %Inh: 13%
[10]
  %Inh: 7%
[11]
  %Inh: 27%
[12]
  %Inh: 18%
[13]
  %Inh: 0%
[14]
  %Inh: 11%
[15]
  %Inh: 0%
[16]
  %Inh: 4%
[17]
  %Inh: 0%
[18]
  %Inh: 10%
[19]
  %Inh: 46%
[20]
  %Inh: 8%

## O=C1NC(=O)C(c2ccccc2)=C1Nc1ccc(Cl)c(C(=O)O)c1 [SB-390532]
[1]
  %Inh: 0%
[2]
  %Inh: 6%
[3]
  %Inh: 3%
[4]
  %Inh: 2%
[5]
  %Inh: 2%
[6]
  %Inh: 14%
[7]
  %Inh: 13%
[8]
  %Inh: 10%
[9]
  %Inh: 20%
[10]
  %Inh: 35%
[11]
  %Inh: 27%
[12]
  %Inh: 4%
[13]
  %Inh: 0%
[14]
  %Inh: 0%
[15]
  %Inh: 5%
[16]
  %Inh: 0%
[17]
  %Inh: 1%
[18]
  %Inh: 0%
[19]
  %Inh: 0%
[20]
  %Inh: 0%

## O=C1NC(=O)C(c2ccc(Cl)cc2)=C1Nc1cccc(O)c1 [SB-333613]
[1]
  %Inh: 0%
[2]
  %Inh: 0%
[3]
  %Inh: 0%
[4]
  %Inh: 0%
[5]
  %Inh: 0%
[6]
  %Inh: 1%
[7]
  %Inh: 0%
[8]
  %Inh: 0%
[9]
  %Inh: 38%
[10]
  %Inh: 10%
[11]
  %Inh: 54%
[12]
  %Inh: 13%
[13]
  %Inh: 0%
[14]
  %Inh: 0%
[15]
  %Inh: 0%
[16]
  %Inh: 3%
[17]
  %Inh: 0%
[18]
  %Inh: 4%
[19]
  %Inh: 46%
[20]
  %Inh: 14%

## CS(=O)(=O)c1ccccc1-c1nc(-c2ccc(F)cc2)c(-c2ccncc2)[nH]1 [SB-213663]
[1]
  %Inh: 6%
[2]
  %Inh: 35%
[3]
  %Inh: 0%
[4]
  %Inh: 13%
[5]
  %Inh: 0%
[6]
  %Inh: 0%
[7]
  %Inh: 0%
[8]
  %Inh: 0%
[9]
  %Inh: 10%
[10]
  %Inh: 44%
[11]
  %Inh: 8%
[12]
  %Inh: 46%
[13]
  %Inh: 0%
[14]
  %Inh: 0%
[15]
  %Inh: 0%
[16]
  %Inh: 17%
[17]
  %Inh: 0%
[18]
  %Inh: 0%
[19]
  %Inh: 1%
[20]
  %Inh: 0%

## Cc1cc(C)cc(Oc2nccc(-c3c(-c4ccc(F)cc4)ncn3C3CCNCC3)n2)c1.O=C(O)C(F)(F)F.O=C(O)C(F)(F)F.O=C(O)C(F)(F)F [SB-284851]
[1]
  %Inh: 0%
[2]
  %Inh: 2%
[3]
  %Inh: 16%
[4]
  %Inh: 23%
[5]
  %Inh: 9%
[6]
  %Inh: 10%
[7]
  %Inh: 12%
[8]
  %Inh: 3%
[9]
  %Inh: 0%
[10]
  %Inh: 85%
[11]
  %Inh: 55%
[12]
  %Inh: 27%
[13]
  %Inh: 0%
[14]
  %Inh: 0%
[15]
  %Inh: 0%
[16]
  %Inh: 0%
[17]
  %Inh: 1%
[18]
  %Inh: 13%
[19]
  %Inh: 0%
[20]
  %Inh: 31%

## O=C(O)c1ccc(-c2nc(-c3ccc(F)cc3)c(-c3ccncc3)[nH]2)cc1 [SB-202620]
[1]
  %Inh: 22%
[2]
  %Inh: 30%
[3]
  %Inh: 0%
[4]
  %Inh: 0%
[5]
  %Inh: 21%
[6]
  %Inh: 10%
[7]
  %Inh: 23%
[8]
  %Inh: 13%
[9]
  %Inh: 51%
[10]
  %Inh: 22%
[11]
  %Inh: 0%
[12]
  %Inh: 0%
[13]
  %Inh: 19%
[14]
  %Inh: 25%
[15]
  %Inh: 0%
[16]
  %Inh: 10%
[17]
  %Inh: 0%
[18]
  %Inh: 43%
[19]
  %Inh: 0%
[20]
  %Inh: 19%

## COc1ccc(C2=C(Nc3cccc(Cl)c3)C(=O)NC2=O)cc1 [SB-326892]
[1]
  %Inh: 0%
[2]
  %Inh: 15%
[3]
  %Inh: 0%
[4]
  %Inh: 0%
[5]
  %Inh: 2%
[6]
  %Inh: 0%
[7]
  %Inh: 14%
[8]
  %Inh: 29%
[9]
  %Inh: 18%
[10]
  %Inh: 8%
[11]
  %Inh: 34%
[12]
  %Inh: 0%
[13]
  %Inh: 0%
[14]
  %Inh: 0%
[15]
  %Inh: 0%
[16]
  %Inh: 0%
[17]
  %Inh: 0%
[18]
  %Inh: 47%
[19]
  %Inh: 16%
[20]
  %Inh: 0%
